Test results published in paper PMC4336329 (PLoS ONE, 2015).
Hit rate of the full screen: of about 310,000 compounds, about 2,200 (0.71%) showed an effect of 50% or more. The effect is printed as a negative number. Some of the results follow.

Each compound was assayed against human ether-à-go-go-related gene (hERG) potassium channel (human, UniProt Q12809) (assay: primary screen, population patch clamp on CHO cells stably expressing hERG).
Chain of human ether-à-go-go-related gene (hERG) potassium channel (Q12809 whole entry, looked up): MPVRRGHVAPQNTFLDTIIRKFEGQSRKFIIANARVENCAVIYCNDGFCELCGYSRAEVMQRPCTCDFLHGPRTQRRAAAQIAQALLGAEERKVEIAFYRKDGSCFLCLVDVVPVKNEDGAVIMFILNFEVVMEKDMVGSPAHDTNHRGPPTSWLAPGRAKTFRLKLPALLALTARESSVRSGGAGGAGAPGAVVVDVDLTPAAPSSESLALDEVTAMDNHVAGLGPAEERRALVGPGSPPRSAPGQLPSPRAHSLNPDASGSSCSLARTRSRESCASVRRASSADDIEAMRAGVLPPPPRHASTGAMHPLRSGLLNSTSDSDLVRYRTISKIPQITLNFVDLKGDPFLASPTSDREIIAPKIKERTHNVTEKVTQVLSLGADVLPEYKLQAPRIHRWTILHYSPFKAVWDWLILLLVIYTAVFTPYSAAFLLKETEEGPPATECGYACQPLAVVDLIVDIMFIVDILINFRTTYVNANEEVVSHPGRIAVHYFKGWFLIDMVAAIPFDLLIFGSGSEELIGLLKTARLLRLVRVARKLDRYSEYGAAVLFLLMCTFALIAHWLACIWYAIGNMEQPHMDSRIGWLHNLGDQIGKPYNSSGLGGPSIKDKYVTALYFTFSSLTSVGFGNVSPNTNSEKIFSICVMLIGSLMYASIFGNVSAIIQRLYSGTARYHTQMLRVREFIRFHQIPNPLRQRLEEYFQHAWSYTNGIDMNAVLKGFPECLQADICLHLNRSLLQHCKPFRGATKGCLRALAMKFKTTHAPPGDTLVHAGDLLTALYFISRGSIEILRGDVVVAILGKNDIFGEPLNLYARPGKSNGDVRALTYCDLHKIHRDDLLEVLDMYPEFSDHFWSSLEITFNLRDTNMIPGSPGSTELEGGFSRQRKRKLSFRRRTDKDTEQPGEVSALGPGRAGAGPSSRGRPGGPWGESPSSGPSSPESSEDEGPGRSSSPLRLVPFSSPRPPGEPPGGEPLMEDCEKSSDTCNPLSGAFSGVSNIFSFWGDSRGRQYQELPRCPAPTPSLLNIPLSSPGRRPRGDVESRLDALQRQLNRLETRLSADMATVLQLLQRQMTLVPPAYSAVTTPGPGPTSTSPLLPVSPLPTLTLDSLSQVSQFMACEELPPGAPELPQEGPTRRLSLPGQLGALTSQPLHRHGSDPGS

Compound | hERG current change (%, negative = inhibition) at 1uM
CC(=O)NS(=O)(=O)c1ccc(NC(=O)CCc2ccccc2)cc1 | 6.51%
Cc1cc(N/N=C/c2ccccc2)nc(N2CCOCC2)n1 | 2.01%
Cc1cccc(CSCc2ccc(C(=O)NC3CCCC3)o2)c1 | 2.56%
CCOc1ccc(/C=N\NC(=O)c2c(C)nc3cc(C)ccn23)cc1 | 9.74%
Cc1csc(NC(=O)c2ccc(S(=O)(=O)N(C)c3ccccc3)cc2)n1 | 8.88%
Cc1ccc(NC(=O)Cn2nnc(C(=O)NCc3ccco3)c2N)cc1 | 3.97%
CCN(CC(=O)Nc1ccccc1C(F)(F)F)C(=O)Cc1cccs1 | 15%
O=C(COc1ccc(Br)cc1)Nc1ccc(-c2nnc(-c3ccco3)o2)cc1 | 0.523%
COc1ccc(S(=O)(=O)N2CCCC2)c(C)c1C | 0.493%
CCOC(=O)N1CCN(C(=O)CSc2nc3c(cnn3-c3ccc(C)cc3)c(=O)[nH]2)CC1 | -5.13%
COc1ccc2c(CC(=O)Nc3ccccc3N3CCOCC3)coc2c1 | -6.52%
COc1ccc(OC)c(NC(=O)CS(=O)(=O)c2cn(CC(=O)N3CCOCC3)c3ccccc23)c1 | 14.7%
CC1(N2CCOCC2)CC2(O)C(=[N+]1[O-])CCc1c2no[n+]1[O-] (stereo not drawn) | 11.5%
O=C(Nc1cccc(C(=O)N2CCCC2)c1)c1ccccc1Cl | 0.986%
Cc1cc(C(=O)NNS(=O)(=O)c2cccc(Cl)c2)nn1C(C)(C)C | 15.5%
CCC1CCCN1Cn1cnc2c([nH]c3ccc(OC)cc32)c1=O (stereo not drawn) | -35.8%
O=c1cc(COc2ccc(Cl)c(Cl)c2)nc2sccn12 | 14.6%
O=C(NNC1=NCCC1)c1cccc(Br)c1 | 13.1%
Br.CCCCCCN1Cc2ccccc2C1 | -14.7%

Compound | hERG current change (%, negative = inhibition) at 1uM
Cc1ccc(Nc2nnc(SC(C)C(=O)NCC3CCCO3)s2)cc1C (stereo not drawn) | 3.84%
Cn1cc(C(=O)OCC(=O)NC2CCCC2)c2ccccc21 | 8.45%
NS(=O)(=O)c1ccc(NC(=O)Nc2ccc(S(N)(=O)=O)cc2)cc1 | 13.4%
O=C(Nc1ccc(-c2noc(-c3ccccc3F)n2)cc1)c1cccs1 | 12.9%
COc1ccc(OC)c2[nH]c(=O)c(CCNC(=S)NC(C)(C)C)cc12 | 8.8%
CCCCOC(=O)c1ccc(NC(=O)Nc2ccc(OC)c(OC)c2)cc1 | 14.9%
Cc1ccc(S(=O)(=O)/N=C(/Nc2ccc(F)cc2F)c2ccccc2)cc1 | 16%
Cc1ccc(-n2c(C)cc(C(=O)CSc3nnc4ccccn34)c2C)cc1 | 0.977%
CN(C(=O)COC(=O)CNS(=O)(=O)/C=C/c1ccccc1)C1CCS(=O)(=O)C1 (stereo not drawn) | 11.2%
COc1ccc(C2CC(=O)c3cnn(-c4nc(C)cc(C)n4)c3C2)cc1OC (stereo not drawn) | 11%
CCC(C)NC(=O)C1=CCN(S(=O)(=O)c2ccc(C)cc2)CC1 (stereo not drawn) | 9.21%
Cc1ccc(Cn2nnnc2CN2CCC(O)(c3cccnc3)CC2)cc1.Cl | 8.97%
O=C(NCCC1=CCCCC1)c1ccc(=O)oc1 | 2.53%
CCc1cccc(CC)c1N(COC)C(=O)Cn1nnc2ccccc21 | -4.49%
O=C(CCC(NC(=O)OCc1ccccc1)C(=O)OCc1ccccc1)NCC(=O)OCc1ccccc1 (stereo not drawn) | 1.31%
COc1ccccc1C(=O)NCCC(=O)NCCc1ccccc1 | 7.24%
CCOC(=O)C1CCN(C(=O)CN2C(=O)c3ccccc3Sc3ncccc32)CC1 | 12.7%
CCO[C@@H]1OC(C(=O)N2CCOCC2)=C[C@H](c2ccc(Br)cc2)[C@H]1CCCO | 22.4%
COCCOC(=O)C1=C(C)NC(=O)NC1c1ccc(-c2cc(Cl)ccc2Cl)o1 (stereo not drawn) | 10.8%

Compound | hERG current change (%, negative = inhibition) at 1uM
O=C(O)C(=O)O.c1ccc2c(OCCCCN3CCOCC3)cccc2c1 | 14.7%
Cc1cc(C)c(NC(=O)CSc2nnnn2-c2cccnc2)c(C)c1 | 13%
COCCNC(=O)c1ccc2c(c1)C(=O)c1ccccc1-2 | 1.39%
CCOC(=O)CC1C(=O)NCCN1C(=O)c1cccc(OC)c1 (stereo not drawn) | 7.74%
FC(F)(F)c1nnc2ccc(N3CCCC3)nn12 | -7.74%
O=C(CSc1ncnc2c1nnn2Cc1ccccc1F)NCC1CCCO1 (stereo not drawn) | 11.8%
Cc1cc(C)c(NC(=O)/C(=C/c2ccco2)c2ccccc2)c(C)c1 | -3.3%
CC(=O)c1ccc(OCC(=O)Nc2ccc(N3CCCCC3)cc2)cc1 | 1.91%
O=C(O)c1cccc(S(=O)(=O)NNc2ccccc2C(F)(F)F)c1 | 19.3%
Cc1ccc(-c2cc(C(=O)Nc3c(C)n(C)n(-c4ccccc4)c3=O)no2)cc1 | -0.208%
NS(=O)(=O)c1ccc(NC(=O)COc2cccc3ccccc23)cc1 | 14.3%
Cc1ccc(C2=NN(C(=O)COc3ncnc4ccccc34)C(c3ccco3)C2)cc1 (stereo not drawn) | 1.83%
Fc1ccc2nc(Nc3nc4c(F)cc(F)cc4s3)sc2c1 | 13.2%
CC(N)(C(=O)O)c1cccc(OCc2cccc(Cl)c2)c1 (stereo not drawn) | 9.88%
COc1ccc(NC(=O)C2C(=O)N(CCO)C3(C)CC2c2ccccc2O3)cc1 (stereo not drawn) | 8.96%
N#C/C(=C\c1c(F)cccc1Cl)S(=O)(=O)c1ccccn1 | 9.5%
CC(C)(C)c1csc(SCC(=O)Nc2ccc(Cl)cn2)n1 | 7.76%
COc1cc(CN2CCN(Cc3ccc(C)cc3)C(CCO)C2)ccc1O (stereo not drawn) | 1.28%
CCOC(=O)N1CCN(S(=O)(=O)c2ccc3c(c2)OCC(=O)N3)CC1 | 9.6%
